In all, about 110,000 compounds were measured (“z-score”: median about -0.1, highest 2% from about 2 on). Some of the results follow.
What follows are compounds tested against Metabotropic glutamate receptor 8 (Rattus norvegicus) (UniProt P70579) (assay: mGluR8 Gi/Go-coupled signaling modulation – cell-based, rat, thallium flux, HTS, primary screen (AID 488969)). Conditions: HEK293 rat mGluR8, GIRK (G protein-gated inwardly rectifying potassium channel) thallium flux, FluoZin2; at 10 µM; stronger effect = higher value; submaximal glutamate (EC20) added with thallium.
Chain of UniProt P70579 (P70579 whole entry, looked up): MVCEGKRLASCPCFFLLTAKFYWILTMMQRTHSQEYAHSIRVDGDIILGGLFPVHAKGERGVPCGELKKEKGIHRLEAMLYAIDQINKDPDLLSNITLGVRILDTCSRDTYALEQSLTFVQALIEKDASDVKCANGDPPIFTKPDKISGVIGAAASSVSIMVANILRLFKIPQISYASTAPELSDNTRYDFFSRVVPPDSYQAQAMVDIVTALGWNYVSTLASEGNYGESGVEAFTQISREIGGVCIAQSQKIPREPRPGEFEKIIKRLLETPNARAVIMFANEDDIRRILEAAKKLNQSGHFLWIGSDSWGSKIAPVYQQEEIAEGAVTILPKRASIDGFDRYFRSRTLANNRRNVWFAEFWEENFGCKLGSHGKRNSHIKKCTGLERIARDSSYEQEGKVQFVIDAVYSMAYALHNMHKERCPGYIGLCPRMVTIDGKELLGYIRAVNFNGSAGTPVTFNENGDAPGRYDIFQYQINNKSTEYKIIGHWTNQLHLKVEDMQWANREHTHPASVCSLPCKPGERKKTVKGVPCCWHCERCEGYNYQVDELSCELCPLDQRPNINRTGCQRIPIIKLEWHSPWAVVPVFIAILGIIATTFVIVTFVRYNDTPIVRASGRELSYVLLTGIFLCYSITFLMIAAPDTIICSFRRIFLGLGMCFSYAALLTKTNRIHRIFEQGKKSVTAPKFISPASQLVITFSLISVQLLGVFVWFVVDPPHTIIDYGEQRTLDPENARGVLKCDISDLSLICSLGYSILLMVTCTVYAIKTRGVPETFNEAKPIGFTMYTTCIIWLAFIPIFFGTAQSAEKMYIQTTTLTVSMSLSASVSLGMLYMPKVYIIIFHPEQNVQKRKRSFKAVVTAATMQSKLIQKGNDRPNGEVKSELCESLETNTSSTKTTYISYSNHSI

SMILES | z-score
CCC(OC(=O)c1cccs1)C(=O)NCc1ccc2c(c1)OCO2 (configuration not stated) | 0.764
CCCc1cc(=O)[nH]c(Nc2ccc(N3CCCCC3)cc2)n1 | -0.473
COc1ccc(C(=O)/C=C2/Sc3cc4c(cc3N2C)OCO4)cc1 | -0.13
CC(C)(C)c1nnc2sc(SC/C(O)=C(\C#N)c3nc4ccccc4[nH]3)nn2c1=O | -0.281
C=C(C)C1CC=C(C)/C(=N/Nc2ccccc2[N+](=O)[O-])C1 (configuration not stated) | -0.027
O=C(Nn1c(O)c(C=C2N=c3ccccc3=N2)sc1=S)c1ccccc1 | -0.256
CCS(=O)(=O)c1ccc(NC(=O)c2ccccc2Cl)c(O)c1 | 0.13
CCOc1cc(/C=N/O)cc(Br)c1OCc1ccc(Cl)cc1 | -0.101
CCOC(=O)/C(N=Nc1cc(C(=O)O)cc(C(=O)O)c1)=C(\O)CCl | 0.168
COc1ccc(C(CNC(=O)c2cccc(Br)c2)N2CCCC2)cc1 (configuration not stated) | 0.745
Clc1ccc(-c2onc3c2CCCC3)cc1 | 0.232
O=C(N/N=C/c1ccc(O)cc1)c1cc(-c2ccc3c(c2)OCO3)n[nH]1 | 0.108
O=C(CSc1nc2sc3c(c2c(=O)n1Cc1ccco1)CCC3)N1CCc2ccccc21 | -0.0881
CC(Nc1cc(N2CCN(C(=O)C(C)(C)C)CC2)ccc1[N+](=O)[O-])c1ccccc1 (configuration not stated) | -0.572
Cc1ccc(CN(C(=O)C(F)(F)F)C(C(=O)NC2CCCCC2)c2ccco2)cc1 (configuration not stated) | -1.39
O=C(NCCN1C(=O)S/C(=C\c2ccc(OC(F)F)cc2)C1=O)c1cnccn1 | -1.08
CCc1ccc(NC(=O)CN2CCc3ccccc3C2)cc1 | -0.133
C/C(N)=C(/C#N)C(=O)CSc1nnc(NC(C)C)s1 | -0.0621
CCn1c(C(=O)N2CCc3ccccc3C2)cc2sccc21 | -0.52

SMILES | z-score
Cc1oc2cc(OCc3cnn(-c4ccccc4)c3)ccc2c(=O)c1Oc1ccccc1F | -0.247
COc1ccc(-c2c[n+]3c4n2CCCCC4=C(c2ccccc2)C3)cc1 | 2.82
CC1=C(C(=O)Nc2cc(C)ccc2C)C(c2cccs2)NC(=S)N1 (configuration not stated) | -0.0019
CCOCCCNC(=O)CCCn1nc(C)n2c(cc3sccc32)c1=O | -0.0689
CCn1c(CNC(=O)c2cccs2)nnc1SCC(=O)Nc1cc(Cl)ccc1C | -0.182
Cn1c(C(=O)OCC(=O)NCc2cccs2)cc2sccc21 | 0.0571
Cc1cccc2cc(C(c3nnnn3CC3CCCO3)N3CCc4ccccc4C3)c(=O)[nH]c12 (configuration not stated) | 0.214
COc1cc(C(=O)NCCc2cn3ccccc3n2)cc(OC)c1OC | 0.348
CC(=O)Nc1cc(C(=O)N2CCCC2)ccc1Sc1ccc(C)cc1 | -1.21
NC(=O)NCc1cccc(Cl)c1 | -0.00917
FC(F)(F)c1cc(-c2cccs2)nc(NCc2ccco2)n1 | -0.0471
Cc1cc(Cl)c(S(=O)(=O)Nc2cccc(O)c2)cc1OCC(N)=O | -0.133
COC(=O)c1cncc(O)c1 | 0.035
CCCOc1ccc([N+](=O)[O-])c(N)c1 | -0.16
Cc1ccc(NC(=O)NC(=O)N(C2CCCCC2)S(=O)(=O)c2ccccc2)cc1 | -0.229
NS(=O)(=O)c1cccnc1Nc1cccc(Cl)c1Cl | -0.19
O=C(O)c1cn[nH]c1-n1cnnn1 | 0.428
Nc1nc(N)c2sc3nc(C(F)(F)F)cc(C(F)(F)F)c3c2n1 | -0.0304
CN(C)c1nc(N)nc(CSc2nnnn2C)n1 | 0.687

SMILES | z-score
Cn1cccc1CNCc1ccccc1Cl | -0.103
CCC(=O)N(CC)C1=C(O)c2ccccc2C(=O)C1=O | -0.181
COc1ccccc1N1CCN(C(=O)c2cc(-c3ccc(Cl)c(Cl)c3)on2)CC1 | -0.219
Cn1nccc1C(=O)N1CCN(c2ccc(F)cc2)CC1 | -0.126
c1ccc(CN2CCN(C(c3ccccc3)c3nnnn3Cc3ccccc3)CC2)cc1 (configuration not stated) | 0.427
O=C(COC(=O)c1ccccc1C(=O)c1ccccc1)NCCc1ccc(Cl)cc1Cl | -0.0656
N/C(=N\OC(=O)c1cccc(Br)c1)c1ccc(Br)cc1 | -0.325
Cc1nnsc1NC(=O)OCc1ccc(C(F)(F)F)cc1 | 0.0066
O=C(CSc1nc2ccc(Nc3nc(N4CCOCC4)nc(N4CCOCC4)n3)cc2s1)N1CCOCC1 | -0.0699
COc1ccc(NS(=O)(=O)c2ccc(NC(=S)NC(=O)c3ccc(F)cc3)cc2)nn1 | -0.142
C/C(=N\NC(=O)c1nn(C)cc1Cl)c1ccncc1 | -0.323
Cc1[nH]c2ccccc2c1C1=CN2CCS(=O)(=O)N=C2S1 | 0.0958
O=C(CN1CCN(c2cccc(C(F)(F)F)c2)CC1)Nc1cccc(C(F)(F)F)c1 | 1
COc1ccccc1NC(=O)CC(c1ccc(OC(C)C)cc1)c1ccccc1OC (configuration not stated) | -0.193
COc1ccccc1C(=O)NN=C1CCN(Cc2ccccc2)CC1 | -0.0272
CCOC(=O)c1[nH]c(C)c(C(=O)OCC(=O)N2CCc3ccccc32)c1C | -0.0546
COC(=O)Cn1c(=NC(=O)c2cc(-c3cccs3)nc3ccccc23)sc2cc(S(N)(=O)=O)ccc21 | -0.289
Cc1ccc(/C=c2\sc3n(c2=O)CN(c2ccc(Br)cc2)CN=3)o1 | -1.97
CCCNC(=O)C(Cc1ccccc1)NS(=O)(=O)c1ccc2c(c1)c(=O)n(C)c(=O)n2C (configuration not stated) | 0.0163
